The supplement of paper PMC3334620
The full ranking holds about 33,000 sequences; the median of “E-score (-0.5 to 0.5)” is about -0.043, and the highest 2% start at about 0.37. The list shows a part of the results.

molecular target: T1, Upc2 (UniProt Q12151); assay: PBM E-score (8-mer binding enrichment) (E-score (-0.5 to 0.5)); higher = stronger / more preferred TF binding; most listed sequences are background and not binding sites; conditions: protein concentration: 200 nM; construct: GST-full length
T1 sequence: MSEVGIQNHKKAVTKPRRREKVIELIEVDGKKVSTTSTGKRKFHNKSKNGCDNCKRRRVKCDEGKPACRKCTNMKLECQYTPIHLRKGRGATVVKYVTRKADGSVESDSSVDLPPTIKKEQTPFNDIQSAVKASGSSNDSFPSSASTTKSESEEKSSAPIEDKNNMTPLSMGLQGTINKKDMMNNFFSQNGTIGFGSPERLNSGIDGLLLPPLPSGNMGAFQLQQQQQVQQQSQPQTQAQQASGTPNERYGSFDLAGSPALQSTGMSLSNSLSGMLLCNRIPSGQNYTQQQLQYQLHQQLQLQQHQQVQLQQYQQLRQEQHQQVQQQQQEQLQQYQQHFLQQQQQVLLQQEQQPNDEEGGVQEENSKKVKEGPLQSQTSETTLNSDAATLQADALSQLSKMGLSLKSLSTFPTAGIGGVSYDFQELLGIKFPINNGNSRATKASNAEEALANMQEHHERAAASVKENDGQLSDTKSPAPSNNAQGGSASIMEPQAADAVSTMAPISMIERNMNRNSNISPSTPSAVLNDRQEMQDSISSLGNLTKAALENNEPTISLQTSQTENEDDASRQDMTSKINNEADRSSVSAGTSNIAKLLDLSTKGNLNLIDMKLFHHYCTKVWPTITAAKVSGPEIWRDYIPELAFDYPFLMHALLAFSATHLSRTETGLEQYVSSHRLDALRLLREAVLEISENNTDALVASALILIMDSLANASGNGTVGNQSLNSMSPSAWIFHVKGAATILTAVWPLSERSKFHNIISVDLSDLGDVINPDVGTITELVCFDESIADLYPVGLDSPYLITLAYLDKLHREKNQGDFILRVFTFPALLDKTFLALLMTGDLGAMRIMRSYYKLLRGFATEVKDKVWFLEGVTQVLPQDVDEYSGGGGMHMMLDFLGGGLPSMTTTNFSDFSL
Summary of the method: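 GST-tagged yeast TFs (full-length or DNA-binding domain) were made by PURExpress in vitro transcription/translation and applied at about 100-200 nM to universal all-10-mer Agilent arrays. The arrays were made double-stranded by primer extension, on fresh or once-stripped slides. Bound protein was detected with fluorescent anti-GST, and scans were normalised with masliner. Each ungapped eight-base word, pooled with its reverse complement, received an E-score (modified Wilcoxon-Mann-Whitney statistic) from the Universal PBM Analysis Suite.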

Sequence | PBM E-score
CTGCATCC | -0.137
ATATATTC | 0.148
CAGTCATC | -0.152
CCACCTGC | -0.125
CCTTTCTC | -0.0694
CGTACCGA | 0.398
TAGGTCAA | -0.0492
CGTAATAG | 0.266
ATAGTCTA | 0.0679
TCCGTCCA | -0.148
CCTAATTA | -0.183
CCCCCATC | -0.166
GTCCTTAA | 0.0114
AATCCGGC | -0.144
AGTTGCAC | -0.186
ATGTTAGC | -0.106
ACTCAATC | -0.0344
TAGTTAGA | -0.0336
CAGGTGCG | -0.0712
AGTCGTGC | -0.127
AGGTCCCC | -0.328
ACTGGCTC | -0.184
AATCAACG | 0.128
ACGTTCGC | 0.14
CCATGAAC | -0.082

Sequence | PBM E-score
AGAACGGC | 0.0546
TATGGACA | -0.00055
ATAGCGTC | -0.0111
GCCACGCC | -0.196
CACTTCGA | 0.11
CTACAGGC | -0.151
GGTTGTAC | 0.154
CAAAAATA | 0.0741
ATGAACGC | 0.14
GTCGAAAC | -0.123
TCCTATAA | -0.149
CAATAATG | -0.0173
TGAAGAAA | -0.193
GAAGACAA | 0.0592
GCCTAGAA | -0.0569
CTATCCGA | 0.222
CAGACTGG | -0.239
CCACATCC | -0.124
CCAAATCC | -0.248
ACATTTCC | -0.00644
GCGAGGGA | 0.0825
ACATGTTG | -0.0106
GATTCAGC | 0.0295
CCTCACAC | -0.0488
ACTACTGC | 0.07

Sequence | PBM E-score
CGAGCTCC | 0.291
GTTCCTAA | 0.0853
ACATTGAC | -0.0206
CCAACTCA | -0.0745
GCATGAGA | -0.175
GGCACAAC | -0.279
CAAAGGTA | 0.047
TGTTCCAA | -0.134
CCGCAGCG | -0.139
GAACCGTA | 0.269
GCGTAAAC | 0.352
CTCGCTGA | -0.136
ACTTTGGC | 0.0736
ACTATCGA | 0.0346
ATAAAACG | 0.28
AGGGGTGA | -0.236
CAAACGGG | 0.351
AATGTCCC | -0.303
AGACCGGC | -0.0634
AATCCGAA | 0.0902
GCATTTCA | -0.103
GATATGGA | 0.047
AGGTTCGG | 0.022
AGGCGACA | -0.168
ATACATTA | 0.0264

Sequence | PBM E-score
ATCCGTGG | -0.2
AAGCTGGC | 0.0255
CAGGGAAA | -0.0386
GCGACCAC | 0.0332
AGAACCGA | 0.00113
GTACCCAA | 0.188
CACATCTA | 0.0208
GACTAGTC | -0.19
AGTATACC | 0.124
CAGAACCC | 0.122
CTGCCCTC | -0.24
GCGCGGGA | 0.0432
GCGCCACC | -0.24
ATTTCATC | -0.129
CAGGAATC | -0.121
TATAATGA | 0.26
AGAACCAG | -0.117
GGTTCAAA | 0.00821
ATTAAGTG | 0.0863
CGCACCAG | 0.0905
CGTATCCC | 0.315
GTTTTCTA | 0.0906
ATAATCCG | 0.00884
GCCCTGTA | 0.0279
AGTACTTC | -0.0175

Sequence | PBM E-score
GAAAAAGA | 0.0701
GCAAAAAA | 0.101
ATTCCGGA | -0.126
GCGTTACA | -0.148
ATCTGTGG | -0.294
GCAGCAGA | -0.0595
TACAGGAA | 0.0741
CTACCTTA | 0.0109
ATGATTCG | 0.12
GAGTTCTA | -0.141
AGCGTGAT | 0.028
GTACGTCA | 0.201
CCTTTCAC | 0.014
ATTGGCCG | -0.187
CAACGCTC | -0.0408
CAGAGGAG | -0.241
CCTTGGCC | -0.352
GCATATTA | 0.0991
GCGTTTCC | 0.0493
AGTCGTAG | 0.291
AGGCGAAG | -0.259
CCGCCCAA | -0.13
ATTTGCAG | -0.0997
GCGTTCCA | 0.11
CAGACGCC | -0.11

Sequence | PBM E-score
AAACATCG | -0.033
CCTAAATC | 0.121
CATAAAAA | 0.0889
GGATTCAA | -0.175
CAGCATAA | -0.0242
ACATTGCT | -0.137
TGGGGAAA | -0.167
CGGTCCTA | -0.0204
AATTCTAA | 0.0439
CTTGTTGA | 0.0628
AGTAGACT | -0.15
GAATACTA | 0.104
ATAGGTTA | 0.0241
GACGTTCC | -0.00278
TAGCCACA | 0.0857
TCTTCCAA | -0.172
GACGAGGC | 0.0687
AACACCTT | 0.0752
ACACCGCG | 0.117
CCTGTGAG | -0.244
GAACCGGC | -0.0869
CCTTATCA | -0.069
ACATTCTC | 0.0478
ACCCAGAC | 0.0954
CGTGCGGA | -0.0318

Sequence | PBM E-score
AATCCGTG | -0.0531
CAGGAGAA | -0.265
GGTACACA | -0.235
CACAGATG | -0.186
CTAGGTTC | -0.149
CAGGGCAG | -0.181
AGTATTCG | 0.215
CAAAGTTC | -0.0961
CTTATTAA | 0.0329
TACTAACA | 0.02
CGGCGGCC | -0.0473
CATTGTGC | -0.18
GCCCATCC | 0.0466
AATCGGCT | -0.0727
GAGTTCCC | -0.157
AGAGTATA | 0.156
ATGAGCCG | -0.102
ACCTTCTG | -0.204
AGAGGAAT | -0.0712
GATGCGTA | 0.229
CAGTTCTC | 0.0285
CAAGCTTG | -0.233
